Experimental data from article PMC7819943, “Rice protein-binding microarrays: a tool to detect cis-acting elements near promoter regions in rice”.
This is one part of the list.

What follows are sequences tested against T1, OsWOX13 (Oryza sativa, UniProt Q5QMM3 1-267) (assay: protein-binding microarray (RPBM); PBS, 2% BSA, 51.3 ng/ul salmon testes DNA, 50 uM zinc acetate, 200 nM TF, 25 C, 1 h; high values mean tight binding). Conditions: protein: recombinant; tags: N-terminal polyhistidine and DsRed monomer fusion (pET32a); label: CyDye5-dUTP incorporated in the synthesized complementary strand; 3' TTTTT single-stranded linker to array surface; dsDNA, one strand shown.
T1 sequence: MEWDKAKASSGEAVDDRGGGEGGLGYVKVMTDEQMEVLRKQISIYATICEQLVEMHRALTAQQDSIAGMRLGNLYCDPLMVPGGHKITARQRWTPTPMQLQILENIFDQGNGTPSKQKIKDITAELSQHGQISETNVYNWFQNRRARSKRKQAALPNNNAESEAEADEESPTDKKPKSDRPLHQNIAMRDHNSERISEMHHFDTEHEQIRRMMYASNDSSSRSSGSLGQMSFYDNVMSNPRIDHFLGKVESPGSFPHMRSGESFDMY
Outline: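 Binding signal is defined as the fluorescence intensity of each feature in arbitrary units, read on an Axon 4000B scanner. Transcription factors with N-terminal polyhistidine and DsRed fusions came from E. coli BL21-CodonPlus and were purified on Ni–NTA. They were incubated at 200 nM for 1 h at 25 °C on a custom Agilent array that had been made double-stranded with Cy5-dUTP, with 50 µM zinc acetate present, and the array was washed.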
“TAATAATTGGATAAATTATTTTGTTCCTGTTTTCTGAAATCGGAGTCACCTAGTGCAG” was tested, and the binding signal was 45400 fluorescence intensity (a.u.). With “AACTTACTGATTGCATGAAGATTTAAAGGGTTGAATCAGTCGGAGTCACCTAGTGCAG” the binding signal was 24400 fluorescence intensity (a.u.). With “GACTTATAATTTTGGTGATTTCTCACTATTATCGCCTAGTCGGAGTCACCTAGTGCAG” the binding signal was 16100 fluorescence intensity (a.u.). In the case of “GCCCAGCCAAATTTCCCTTGACACGCACCTAAATTAGGCGCGGAGTCACCTAGTGCAG”, the binding signal is reported as 4050 fluorescence intensity (a.u.). “AAACCAATCAAGGGCTTGTTTAGGGAAGTTTCTAGCTACACGGAGTCACCTAGTGCAG” was tested, and the binding signal was 27200 fluorescence intensity (a.u.). In the case of “TACTGGTTTATTTTACCAATCAATCAATTGTTCTCAAGCTCGGAGTCACCTAGTGCAG”, the binding signal is reported as 17300 fluorescence intensity (a.u.). In the case of “ACAATTGAATGAACAGAAAACTGTGAAAATTATGGGACTACGGAGTCACCTAGTGCAG”, the binding signal is reported as 8480 fluorescence intensity (a.u.). In the case of “ATCTTTTGATAAGTATAATTATTTTCTAGTTAATCACACTCGGAGTCACCTAGTGCAG”, the binding signal is reported as 4780 fluorescence intensity (a.u.). “ATAAACAATTAATATAACACATCGTACATTCATATTCCCTCGGAGTCACCTAGTGCAG” was tested, and the binding signal was 4680 fluorescence intensity (a.u.). In the case of “GTGTGTAATTGTTGCGTACGTCAATGTGGCAGATGAGAGGCGGAGTCACCTAGTGCAG”, the binding signal is reported as 7360 fluorescence intensity (a.u.). In the case of “AAATATGATTTTCTCCTGATATTTCACCATCCGTACCGCACGGAGTCACCTAGTGCAG”, the binding signal is reported as 13900 fluorescence intensity (a.u.). In the case of “AGAGTAATTATGGTTAAAAGATTTGTCGATGTTACAGGGCCGGAGTCACCTAGTGCAG”, the binding signal is reported as 29100 fluorescence intensity (a.u.). For “GCTGTTTAAATTGCTGAAAATTCTTTTGGGTGCCAGAGTTCGGAGTCACCTAGTGCAG”, the binding signal was 7880 fluorescence intensity (a.u.). In the case of “TTCTGTAATTAGTTTATTTTATTAGTACCTGAACACCCCACGGAGTCACCTAGTGCAG”, the binding signal is reported as 19300 fluorescence intensity (a.u.). In the case of “ACCACTTGATTGGCATGCGACAAACGGGTAGACATCCATCCGGAGTCACCTAGTGCAG”, the binding signal is reported as 49000 fluorescence intensity (a.u.). In the case of “CTTTATTTACTACCTCCGTGATTTTGATTCTGCCCATGCACGGAGTCACCTAGTGCAG”, the binding signal is reported as 3910 fluorescence intensity (a.u.). For “TTTAATCATGATAGAGTTGCTCGAGCAAATGTGGCACACGCGGAGTCACCTAGTGCAG”, the binding signal was 3430 fluorescence intensity (a.u.). With “TTAGATATATTGACACATATTTAAAGTATTAAACGTAGTCCGGAGTCACCTAGTGCAG” the binding signal was 9980 fluorescence intensity (a.u.). With “ATCCATTAGCACATGATTAATTAAGTATCTGCTATTCTTTCGGAGTCACCTAGTGCAG” the binding signal was 17400 fluorescence intensity (a.u.). With “AACTAAATTTACAAATACAAGTTTAGTTATATAGGACTGTCGGAGTCACCTAGTGCAG” the binding signal was 21000 fluorescence intensity (a.u.). With “ACAATCAGCATTGATTAGATAGCATTTTCTAAACTACTTGCGGAGTCACCTAGTGCAG” the binding signal was 20200 fluorescence intensity (a.u.). For “CAAACTTAAATGATTAAGTAAATTTCACAAAATTACACATCGGAGTCACCTAGTGCAG”, the binding signal was 14300 fluorescence intensity (a.u.). In the case of “TTTCTCTCAATCTTAATAGATTTGGCCGGCGTTTCCTTTGCGGAGTCACCTAGTGCAG”, the binding signal is reported as 8120 fluorescence intensity (a.u.).
